# The shares of active, inactive and inconclusive entries below differ from those in the screen. For some of these results: Potencies of inconclusive entries are doubtful fits and often do not repeat. Active and inactive are the calls of the source. Unless noted, calls come from the whole dose curve; as a rule, active = well fitted curve in the direction sought with a large enough effect; inconclusive = small, poorly fitted or top-dose-only effect, or another doubt; inactive = no such curve, though single readings can be large; an effect the other way counts as inactive or inconclusive.
# What was measured:
# NIH3T3 = assay: Cytotoxic Profiling of Annotated Libraries Using Quantitative High-Throughput Screening (AID 1296008); details: Five cell lines viability, CellTiter-Glo ATP luminescence, 48-72 h; max response: stronger effect = lower value; note: nearly all actives have a fitted effect of over 60% in size; note: potency is the fitted concentration of half-maximal effect; for max response: % is set by controls: 0 for no effect and ±100 for the full control effect
# Procedure, shortened: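 Compounds were pin-transferred onto cells and incubated 48 or 72 hr at 37 degree Celsius, 95% humidity. CellTiter-Glo was added, plates sat 10 min at room temperature, then ATP-coupled luminescence was imaged as the viability read-out.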
# SKOV3 = assay: Primary qHTS to identify gynecologic anti-cancer compounds using libraries of approved drugs and bioactive compounds (AID 1345084); details: Gynecologic cancer cell panel viability, ATPlite luminescence, 48 h; series mostly up to 57.5 µM; note: nearly all actives have a fitted effect of over 55% in size; note: potency is the fitted concentration of half-maximal effect; for activity change, negative = cytotoxicity: % is set by controls: 0 for no effect and ±100 for the full control effect
# Procedure, shortened: (§1)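 Cell viability after 48 h drug treatment, ATPlite luminescence readout; five doses.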
# Tov-21-G = assay: as above; details: Gynecologic cancer cell panel viability, ATPlite luminescence, 48 h; activity change, negative = cytotoxicity: at 57.5 µM (top of the series) unless noted
# Procedure, shortened: as §1
# [1] = molecular target: Cytochrome P450 2D6 (Homo sapiens) (UniProt P10635); assay: Cytochrome P450 family 2 subfamily D member 6 (CYP2D6) small molecule antagonists: luciferase biochemical (cell-free) qHTS assay (AID 1645840; active = well fitted curve in the direction sought with a large enough effect in the repeat runs; inconclusive = weak or mixed curves; inactive = no such curve, though single readings can be large; an effect the other way counts as inactive or inconclusive; note: potency is the fitted concentration of half-maximal effect; nearly all actives have a fitted effect of over 55% in size)
# UniProt P10635, sequence (P10635 whole entry, looked up): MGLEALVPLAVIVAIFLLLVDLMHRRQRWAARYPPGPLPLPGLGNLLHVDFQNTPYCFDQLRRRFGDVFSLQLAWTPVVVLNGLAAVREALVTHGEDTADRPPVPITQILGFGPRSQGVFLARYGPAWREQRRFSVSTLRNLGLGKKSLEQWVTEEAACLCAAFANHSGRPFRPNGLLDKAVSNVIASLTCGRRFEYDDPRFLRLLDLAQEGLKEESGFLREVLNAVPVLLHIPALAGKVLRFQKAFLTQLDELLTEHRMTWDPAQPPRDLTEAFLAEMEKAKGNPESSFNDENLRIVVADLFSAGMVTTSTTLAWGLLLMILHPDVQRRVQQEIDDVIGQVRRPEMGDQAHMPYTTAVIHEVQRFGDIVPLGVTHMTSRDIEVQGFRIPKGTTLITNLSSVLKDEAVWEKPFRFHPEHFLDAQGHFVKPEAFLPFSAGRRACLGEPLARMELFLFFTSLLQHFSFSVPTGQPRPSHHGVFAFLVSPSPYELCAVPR
# Procedure, shortened: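 P450-Glo CYP2D6 system: proluciferin substrate converted by enzyme to luciferin, read by luminescence proportional to activity. Enzyme-substrate mix with compound 10 min at room temperature, then NADPH regeneration 1 h before detection reagent.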
# [2] = Primary qHTS for inhibitors of nuclear receptor binding SET domain protein 2 (NSD2) in an isogenic RCH-ACV NSD2 p.E1099K mutant (9B) (AID 1645876); note: nearly all actives have a fitted effect of over 70% in size; note: potency is the fitted concentration of half-maximal effect
# C33A = assay: Primary qHTS to identify gynecologic anti-cancer compounds using libraries of approved drugs and bioactive compounds (AID 1345084); details: Gynecologic cancer cell panel viability, ATPlite luminescence, 48 h; series mostly up to 57.5 µM; note: nearly all actives have a fitted effect of over 55% in size; note: potency is the fitted concentration of half-maximal effect; for activity change, negative = cytotoxicity: % is set by controls: 0 for no effect and ±100 for the full control effect
# Procedure, shortened: as §1
# CAOV3 = assay: as above; details: Gynecologic cancer cell panel viability, ATPlite luminescence, 48 h; activity change, negative = cytotoxicity: at 57.5 µM (top of the series)
# Procedure, shortened: as §1
# CASKI = assay: as above; details: Gynecologic cancer cell panel viability, ATPlite luminescence, 48 h; series mostly up to 57.5 µM
# Procedure, shortened: as §1
# Es-2 = assay: as above; details: Gynecologic cancer cell panel viability, ATPlite luminescence, 48 h; series mostly up to 57.5 µM
# Procedure, shortened: as §1
# Hek293T = assay: as above; details: Gynecologic cancer cell panel viability, ATPlite luminescence, 48 h, control line for the selectivity index; activity change, negative = cytotoxicity: at 57.5 µM (top of the series) unless noted
# Procedure, shortened: as §1
# OV90 = assay: as above; details: Gynecologic cancer cell panel viability, ATPlite luminescence, 48 h; series mostly up to 57.5 µM
# Procedure, shortened: as §1
# PA-1 = assay: as above; details: Gynecologic cancer cell panel viability, ATPlite luminescence, 48 h; series mostly up to 57.5 µM
# Procedure, shortened: as §1
# Tov112D = assay: as above; details: Gynecologic cancer cell panel viability, ATPlite luminescence, 48 h; series mostly up to 57.5 µM
# Procedure, shortened: as §1
# [3] = Primary fluorescence-based thiol-reactive (MSTI) qHTS assay for identification of artifact compounds. (AID 1845221);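 note: potency is the fitted concentration of half-maximal effect; thiol-reactive compounds lower the probe fluorescence signal; nearly all actives have a fitted effect of over 65% in size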
# Procedure, shortened: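 Probe: MSTI 4 uM, PBS pH 7.4, 2% DMSO. Incubation 1 h, RT, light-protected. Readout fluorescence 525/598 nm.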
# HeLa = assay: Primary qHTS to identify gynecologic anti-cancer compounds using libraries of approved drugs and bioactive compounds (AID 1345084); details: Gynecologic cancer cell panel viability, ATPlite luminescence, 48 h; activity change, negative = cytotoxicity: at 57.5 µM (top of the series); note: nearly all actives have a fitted effect of over 55% in size; note: potency is the fitted concentration of half-maximal effect; for activity change, negative = cytotoxicity: % is set by controls: 0 for no effect and ±100 for the full control effect
# Procedure, shortened: as §1
# [4] = P-glycoprotein substrates identified in KB-8-5-11 adenocarcinoma cell line, qHTS therapeutic library screen (AID 1346987); note: potency is the fitted concentration of half-maximal effect; nearly all actives have a fitted effect of over 65% in size
# Procedure, shortened: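 Compounds are pinned in dose-response onto KB-8-5-11 cells (500 cells/well, colchicine-free medium) and left 72 h at 37 degree C. CellTiter-Glo luminescence then yields AC50 values.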
# [5] = Primary qHTS for inhibitors of nuclear receptor binding SET domain protein 2 (NSD2) in an RCH-ACV wild type WT cells (2C) (AID 1645877); details: activity change, negative = cell killing: at 44.9 µM (top of the series) unless noted; note: nearly all actives have a fitted effect of over 70% in size; note: potency is the fitted concentration of half-maximal effect
# [6] = system: Zika virus NS2B-NS3 protease (unlinked complex); assay: Primary screen GU Rhodamine qHTS for Zika virus inhibitors: Unlinked NS2B-NS3 protease assay (AID 1347159); note: potency is the fitted concentration of half-maximal effect; nearly all actives have a fitted effect of over 60% in size
# Procedure, shortened: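 In dose–response format, inhibition of unlinked protease (25 nM) was measured with 1.5 microM bis-peptide Rhodamine110 substrate. Aprotinin served as the intraplate control.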
# [7] = Primary qHTS for small molecule stabilizers of the endoplasmic reticulum resident proteome: Secreted ER Calcium Modulated Protein (SERCaMP) assay (AID 1508630); details: SH-SY5Y GLuc-SERCaMP (Gaussia luciferase released on ER calcium loss) secretion, thapsigargin, luminescence; activity change, negative = inhibition: at 38.4 µM (top of the series) unless noted; note: potency is the fitted concentration of half-maximal effect
# Procedure, shortened: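 The SH-SY5Y reporter protocol was run at 3 concentrations up to 38.3 uM (primary) or 11 concentrations (follow-up): 16 h compound, 100 nM thapsigargin for 4 h, then extracellular luciferase luminescence.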
# [8] = Primary redox qHTS assay for identification of artifact compounds. (AID 1845223); details: Amplex Red/HRP redox cycling with DTT, fluorescence; redox activity (% of DA3003): at 53.8 µM (top of the series);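 note: 0% = DMSO and 100% = reference compound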
# Procedure, shortened: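 Redox-cycling detection via DTT (250 uM final) oxidation coupled to Amplex Red (25 uM)/HRP (250 mU/mL) in HBSS. 15 min preincubation plus 30 min after DTT, room temperature. Ex/Em 525/598 nm; 4-parameter Hill fit against DMSO and 10 uM DA3003.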
# Tags give direction and shape of the fitted curve.
smiles,measurement,setting,value
C[C@@H]1CC[C@@]2(OC1)O[C@H]1C[C@H]3[C@@H]4CC[C@H]5C[C@@H](O)CC[C@]5(C)[C@H]4CC(=O)[C@]3(C)[C@H]1[C@@H]2C,outcome,NIH3T3,inactive
same,"activity change, negative = cytotoxicity",SKOV3,inactive: 8.75% [at 6.55 µM]
same,"activity change, negative = cytotoxicity",Tov-21-G,inactive: 5.68% [at 6.55 µM]
CC[C@@]1(O)C(=O)OCc2c1cc1n(c2=O)Cc2c-1nc1ccccc1c2/C=N/OC(C)(C)C,Potency,[1],"inconclusive: 27.5 µM [inhibitor, single point]"
same,Potency,[2],inactive
same,Potency,NIH3T3,active: 0.266 µM
same,Potency,C33A,inconclusive: 0.447 µM
same,Potency,CAOV3,"inconclusive: 2.82 µM [cytotoxic, full curve, poor fit]"
same,Potency,CASKI,inconclusive: 2.82 µM
same,Potency,Es-2,inconclusive: 0.0891 µM
same,Potency,Hek293T,active: 0.355 µM
same,Potency,OV90,active: 8.91 µM
same,Potency,PA-1,inconclusive: 1 µM
same,Potency,SKOV3,inconclusive: 0.1 µM
same,Potency,Tov-21-G,active: 1.41 µM
same,Potency,Tov112D,inconclusive: 0.01 µM
C[C@@H]1CCC[C@H](C)N1,max response,NIH3T3,inactive: 4.6%
same,Potency,OV90,inactive
NCCCNc1ccc(Nc2nccc(Nc3cc(C4CC4)[nH]n3)n2)cc1,Potency,[3],"inconclusive: 23.8 µM [inhibitor, partial curve]"
same,Potency,NIH3T3,active: 5.8 µM
same,Potency,C33A,"inconclusive: 2 µM [cytotoxic, full curve, poor fit]"
same,Potency,CAOV3,"inconclusive: 1.26 µM [cytotoxic, full curve, poor fit]"
same,Potency,CASKI,active: 3.98 µM
same,Potency,Es-2,active: 2.24 µM
same,Potency,HeLa,active: 4.47 µM
same,Potency,Hek293T,active: 1.41 µM
same,Potency,OV90,active: 8.91 µM
same,Potency,SKOV3,active: 7.08 µM
same,Potency,Tov112D,active: 2.82 µM
O=C1c2cccc3c2[C@H](CCC3)CN1[C@@H]1CN2CCC1CC2,Potency,[4],"inconclusive: 20.6 µM [inhibitor, single point]"
same,Potency,[1],"inconclusive: 30.9 µM [inhibitor, single point]"
same,Potency,[2],"inconclusive: 33.5 µM [inhibitor, single point]"
same,Potency,[5],"inconclusive: 21.1 µM [inhibitor, single point]"
same,Potency,NIH3T3,"inconclusive: 29.9 µM [inhibitor, single point]"
same,Potency,OV90,inactive
O=c1[nH]c2cccc(N3CCN(Cc4ccc(-c5ccccc5)cc4)CC3)c2o1,Potency,[4],"inconclusive: 18.4 µM [inhibitor, single point]"
same,Potency,[6],"inconclusive: 39.8 µM [inhibitor, partial curve]"
same,Potency,[1],active: 8.49 µM
same,Potency,[2],"inconclusive: 18.3 µM [inhibitor, single point]"
same,Potency,[5],"inconclusive: 14.5 µM [inhibitor, partial curve]"
same,Potency,NIH3T3,"inconclusive: 29.1 µM [inhibitor, single point]"
same,Potency,C33A,inactive
same,Potency,CAOV3,"inconclusive: 0.794 µM [cytotoxic, single point]"
NCc1ccccc1Sc1ccccc1CO,Potency,[7],inactive
same,Potency,[2],"inconclusive: 29.9 µM [inhibitor, partial curve, poor fit]"
same,Potency,[5],"inconclusive: 29.9 µM [inhibitor, single point]"
same,outcome,NIH3T3,inactive
CCOC(=O)N1CCC(Nc2ccc(Cl)cc2N)CC1,Potency,[7],"inconclusive: 10 µM [inhibitor, partial curve, poor fit]"
same,Potency,[2],active: 13.3 µM
same,Potency,NIH3T3,"inconclusive: 29.9 µM [inhibitor, single point]"
same,Potency,CASKI,inactive
same,Potency,Es-2,inactive
same,Potency,OV90,"inconclusive: 14.1 µM [cytotoxic, partial curve]"
same,Potency,PA-1,"inconclusive: 14.1 µM [cytotoxic, partial curve, poor fit]"
same,Potency,SKOV3,inactive
O=C(/C=C/c1ccc(O)cc1)OC[C@@]1(O)C=C[C@@H]2C(C(=O)O)=CO[C@@H](O[C@@H]3O[C@H](CO)[C@@H](O)[C@H](O)[C@H]3O)[C@@H]21,Potency,[6],"inconclusive: 11.2 µM [inhibitor, full curve, poor fit]"
same,Potency,[3],active: 5.19 µM
same,max response,NIH3T3,inactive: 2.82%
same,Potency,C33A,inactive
same,Potency,Es-2,inactive
same,Potency,OV90,inactive
same,Potency,PA-1,inactive
CC(C)=CCC/C(C)=C/CC/C(C)=C/COC1OC(COC2OCC(OC3OCC(O)C(O)C3O)C(O)C2O)C(O)C(OC2OC(C)C(OC3OC(C)C(OC4OCC(OC5OC(C)C(O)C(O)C5O)C(O)C4O)C(O)C3O)C(O)C2O)C1O (stereo not given),outcome,[2],inactive [at 9.23 µM]
same,outcome,[5],inactive [at 9.23 µM]
same,redox activity (% of DA3003),[8],inactive: 11.7% [at 11.5 µM]
same,max response,NIH3T3,inactive: -0.843%
same,Potency,CAOV3,"inconclusive: 6.31 µM [rising, single point]"
same,"activity change, negative = cytotoxicity",Hek293T,inactive: -3.08% [at 6.55 µM]
same,"activity change, negative = cytotoxicity",PA-1,inactive: -4.48% [at 6.55 µM]
same,"activity change, negative = cytotoxicity",Tov-21-G,inactive: -0.577% [at 6.55 µM]
